Source: the supplement of paper PMC8728848
Some of the results follow.

Legend:
Assay in all cases: glycan array binding signal (z-score within array); higher = stronger binding
Settings in all cases: glycan notation: IUPAC condensed, linker removed
[1] = biological target: Neu5Ac(a2-3)Gal(b1-4)[Fuc(a1-3)]GlcNAc6S
Method in brief: (§1)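 Columns mapping to the same glycan were averaged after glycan names were converted to IUPAC-condensed notation. The data come from 3228 arrays in the Consortium for Functional Glycomics database, limited to those with an available protein sequence. Binding is reported as a within-array Z-score averaged across arrays of one protein sequence and across linkers.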

[2] = biological target: Neu5Ac(a2-3)Gal6S(b1-4)GlcNAc
Method in brief: as §1

[3] = biological target: Neu5Ac(a2-3)Gal6S(b1-4)[Fuc(a1-3)]GlcNAc
Method in brief: as §1

Neu5Ac(a2-3)GalNAc = biological target: Neu5Ac(a2-3)GalNAc
Method in brief: as §1

[4] = biological target: Neu5Ac(a2-3)GalNAc(b1-4)GlcNAc
Method in brief: as §1

[5] = biological target: Neu5Ac(a2-3)[GalNAc(b1-4)]Gal(b1-4)Glc
Method in brief: as §1

[6] = biological target: Neu5Ac(a2-3)[GalNAc(b1-4)]Gal(b1-4)GlcNAc
Method in brief: as §1

[7] = biological target: Neu5Ac(a2-3)[GalNAc(b1-4)]Gal(b1-4)GlcNAc(b1-3)GalNAc
Method in brief: as §1

[8] = biological target: Neu5Ac(a2-3)[Neu5Ac(a2-6)]GalNAc
Method in brief: as §1

Neu5Ac(a2-6)Gal = biological target: Neu5Ac(a2-6)Gal
Method in brief: as §1

[9] = biological target: Neu5Ac(a2-6)Gal(b1-3)GlcNAc(b1-3)[Gal(b1-4)GlcNAc(b1-6)]Gal(b1-4)Glc
Method in brief: as §1

Neu5Ac(a2-6)Gal(b1-4)Glc = biological target: Neu5Ac(a2-6)Gal(b1-4)Glc
Method in brief: as §1

[10] = biological target: Neu5Ac(a2-6)Gal(b1-4)GlcNAc
Method in brief: as §1

[11] = biological target: Neu5Ac(a2-6)Gal(b1-4)GlcNAc(b1-2)Man(a1-3)Man(b1-4)GlcNAc(b1-4)GlcNAc
Method in brief: as §1

[12] = biological target: Neu5Ac(a2-6)Gal(b1-4)GlcNAc(b1-2)Man(a1-3)[Gal(b1-4)GlcNAc(b1-2)Man(a1-6)]Man(b1-4)GlcNAc(b1-4)GlcNAc
Method in brief: as §1

[13] = biological target: Neu5Ac(a2-6)Gal(b1-4)GlcNAc(b1-2)Man(a1-3)[GlcNAc(b1-2)Man(a1-6)]Man(b1-4)GlcNAc(b1-4)GlcNAc
Method in brief: as §1

[14] = biological target: Neu5Ac(a2-6)Gal(b1-4)GlcNAc(b1-2)Man(a1-3)[GlcNAc(b1-2)Man(b1-4)GlcNAc(b1-2)Man(a1-6)]Man(b1-4)GlcNAc(b1-4)GlcNAc
Method in brief: as §1

[15] = biological target: Neu5Ac(a2-6)Gal(b1-4)GlcNAc(b1-2)Man(a1-3)[Man(a1-6)]Man(b1-4)GlcNAc(b1-4)GlcNAc
Method in brief: as §1

[16] = biological target: Neu5Ac(a2-6)Gal(b1-4)GlcNAc(b1-2)Man(a1-3)[Neu5Ac(a2-6)Gal(b1-4)GlcNAc(b1-2)Man(a1-6)]Man(b1-4)GlcNAc(b1-4)GlcNAc
Method in brief: as §1

[17] = biological target: Neu5Ac(a2-6)Gal(b1-4)GlcNAc(b1-2)Man(a1-6)Man(b1-4)GlcNAc(b1-4)GlcNAc
Method in brief: as §1

[18] = biological target: Neu5Ac(a2-6)Gal(b1-4)GlcNAc(b1-2)Man(a1-6)[Gal(b1-4)GlcNAc(b1-2)Man(a1-3)]Man(b1-4)GlcNAc(b1-4)GlcNAc
Method in brief: as §1

[19] = biological target: Neu5Ac(a2-6)Gal(b1-4)GlcNAc(b1-2)Man(a1-6)[GlcNAc(b1-2)Man(a1-3)]Man(b1-4)GlcNAc(b1-4)GlcNAc
Method in brief: as §1

[20] = biological target: Neu5Ac(a2-6)Gal(b1-4)GlcNAc(b1-2)Man(a1-6)[Man(a1-3)]Man(b1-4)GlcNAc(b1-4)GlcNAc
Method in brief: as §1

[21] = biological target: Neu5Ac(a2-6)Gal(b1-4)GlcNAc(b1-3)Gal(b1-3)GlcNAc
Method in brief: as §1

[22] = biological target: Neu5Ac(a2-6)Gal(b1-4)GlcNAc(b1-3)Gal(b1-4)GlcNAc
Method in brief: as §1

[23] = biological target: Neu5Ac(a2-6)Gal(b1-4)GlcNAc(b1-3)Gal(b1-4)GlcNAc(b1-3)Gal(b1-4)GlcNAc
Method in brief: as §1

[24] = biological target: Neu5Ac(a2-6)Gal(b1-4)GlcNAc(b1-3)Gal(b1-4)[Fuc(a1-3)]GlcNAc(b1-3)Gal(b1-4)[Fuc(a1-3)]GlcNAc
Method in brief: as §1

[25] = biological target: Neu5Ac(a2-6)Gal(b1-4)GlcNAc(b1-3)GalNAc
Method in brief: as §1

[26] = biological target: Neu5Ac(a2-6)Gal(b1-4)GlcNAc6S
Method in brief: as §1

Neu5Ac(a2-6)GalNAc = biological target: Neu5Ac(a2-6)GalNAc
Method in brief: as §1

[27] = biological target: Neu5Ac(a2-6)GalNAc(b1-4)GlcNAc
Method in brief: as §1

[28] = biological target: Neu5Ac(a2-6)GlcNAc(b1-4)GlcNAc
Method in brief: as §1

[29] = biological target: Neu5Ac(a2-6)GlcNAc(b1-4)GlcNAc(b1-4)GlcNAc
Method in brief: as §1

Neu5Ac(a2-8)Neu5Ac = biological target: Neu5Ac(a2-8)Neu5Ac
Method in brief: as §1

[30] = biological target: Neu5Ac(a2-8)Neu5Ac(a2-3)Gal(b1-3)GalNAc(b1-4)[Neu5Ac(a2-8)Neu5Ac(a2-3)]Gal(b1-4)Glc
Method in brief: as §1

[31] = biological target: Neu5Ac(a2-8)Neu5Ac(a2-3)Gal(b1-4)Glc
Method in brief: as §1

[32] = biological target: Neu5Ac(a2-8)Neu5Ac(a2-3)[Gal(b1-3)GalNAc(b1-4)]Gal(b1-4)Glc
Method in brief: as §1

[33] = biological target: Neu5Ac(a2-8)Neu5Ac(a2-3)[GalNAc(b1-4)]Gal(b1-4)Glc
Method in brief: as §1

[34] = biological target: Neu5Ac(a2-8)Neu5Ac(a2-8)Neu5Ac
Method in brief: as §1

[35] = biological target: Neu5Ac(a2-8)Neu5Ac(a2-8)Neu5Ac(a2-3)Gal(b1-4)Glc
Method in brief: as §1

[36] = biological target: Neu5Ac(a2-8)Neu5Ac(a2-8)Neu5Ac(a2-3)[GalNAc(b1-4)]Gal(b1-4)Glc
Method in brief: as §1

[37] = biological target: Neu5Ac(a2-8)Neu5Ac(a2-8)Neu5Ac(a2-8)Neu5Ac(a2-3)[GalNAc(b1-4)]Gal(b1-4)Glc
Method in brief: as §1

[38] = biological target: Neu5Ac(b2-6)Gal(b1-4)GlcNAc
Method in brief: as §1

Neu5Ac(b2-6)GalNAc = biological target: Neu5Ac(b2-6)GalNAc
Method in brief: as §1

[39] = biological target: Neu5Ac9Ac(a2-3)Gal(b1-3)GlcNAc
Method in brief: as §1

B1: RS2L (Ralstonia solanacearum), B5RXL5_RALSO (protein)
chain: MAQQGVFTLPANTSFGVTAFANAANTQTIQVLVDNVVKATFTGSGTSDKLLGSQVLNSGSGAIKIQVSVNGKPSDLVSNQTILANKLNFAMVGSEDGTDNDYNDGIAVLNWPLG
glycan array binding signal (z-score) [1]: -0.244 | glycan array binding signal (z-score) [2]: -0.24 | glycan array binding signal (z-score) [3]: -0.24 | glycan array binding signal (z-score) (Neu5Ac(a2-3)GalNAc): -0.239 | glycan array binding signal (z-score) [4]: -0.237 | glycan array binding signal (z-score) [5]: -0.245 | glycan array binding signal (z-score) [6]: -0.243 | glycan array binding signal (z-score) [7]: -0.248 | glycan array binding signal (z-score) [8]: -0.246 | glycan array binding signal (z-score) (Neu5Ac(a2-6)Gal): -0.246 | glycan array binding signal (z-score) [9]: -0.237 | glycan array binding signal (z-score) (Neu5Ac(a2-6)Gal(b1-4)Glc): -0.246 | glycan array binding signal (z-score) [10]: -0.24 | glycan array binding signal (z-score) [11]: -0.245 | glycan array binding signal (z-score) [12]: -0.251 | glycan array binding signal (z-score) [13]: -0.184 | glycan array binding signal (z-score) [14]: -0.244 | glycan array binding signal (z-score) [15]: 2.49 | glycan array binding signal (z-score) [16]: -0.246 | glycan array binding signal (z-score) [17]: -0.227 | glycan array binding signal (z-score) [18]: -0.237 | glycan array binding signal (z-score) [19]: -0.237 | glycan array binding signal (z-score) [20]: 2.97 | glycan array binding signal (z-score) [21]: -0.251 | glycan array binding signal (z-score) [22]: -0.244 | glycan array binding signal (z-score) [23]: -0.232 | glycan array binding signal (z-score) [24]: -0.052 | glycan array binding signal (z-score) [25]: -0.19 | glycan array binding signal (z-score) [26]: -0.243 | glycan array binding signal (z-score) (Neu5Ac(a2-6)GalNAc): -0.244 | glycan array binding signal (z-score) [27]: -0.242 | glycan array binding signal (z-score) [28]: -0.243 | glycan array binding signal (z-score) [29]: -0.252 | glycan array binding signal (z-score) (Neu5Ac(a2-8)Neu5Ac): -0.24 | glycan array binding signal (z-score) [30]: -0.245 | glycan array binding signal (z-score) [31]: -0.247 | glycan array binding signal (z-score) [32]: -0.233 | glycan array binding signal (z-score) [33]: -0.245 | glycan array binding signal (z-score) [34]: -0.243 | glycan array binding signal (z-score) [35]: -0.245 | glycan array binding signal (z-score) [36]: -0.252 | glycan array binding signal (z-score) [37]: -0.22 | glycan array binding signal (z-score) [38]: -0.252 | glycan array binding signal (z-score) (Neu5Ac(b2-6)GalNAc): -0.248 | glycan array binding signal (z-score) [39]: -0.242
